Reference: the supplement of paper PMC8728848
Some of the results follow.

Legend:
Test in all cases: glycan array binding signal (z-score within array); higher = stronger binding
Conditions in all cases: glycan notation: IUPAC condensed, linker removed
[1] = biological target: Gal(b1-3)[Fuc(a1-4)]GlcNAc(b1-3)Gal(b1-3)[Fuc(a1-4)]GlcNAc
Procedure, shortened: (§1)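 From the Consortium for Functional Glycomics database, 3228 arrays were curated, keeping only those whose protein sequence was available. Binding is given as a within-array Z-score averaged across arrays sharing a protein sequence and across linkers. Negative Z-scores can be read as non-binding.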

[2] = biological target: Gal(b1-3)[Fuc(a1-4)]GlcNAc(b1-3)Gal(b1-4)GlcNAc
Procedure, shortened: as §1

[3] = biological target: Gal(b1-3)[Fuc(a1-4)]GlcNAc(b1-3)Gal(b1-4)[Fuc(a1-3)]GlcNAc
Procedure, shortened: as §1

[4] = biological target: Gal(b1-3)[GlcNAc(b1-6)]GalNAc
Procedure, shortened: as §1

[5] = biological target: Gal(b1-3)[Neu5Ac(a2-6)]GalNAc
Procedure, shortened: as §1

[6] = biological target: Gal(b1-3)[Neu5Ac(a2-6)]GlcNAc(b1-6)Gal(b1-4)Glc
Procedure, shortened: as §1

[7] = biological target: Gal(b1-3)[Neu5Ac(b2-6)]GalNAc
Procedure, shortened: as §1

Gal(b1-4)Gal = biological target: Gal(b1-4)Gal
Procedure, shortened: as §1

[8] = biological target: Gal(b1-4)GalNAc(a1-3)[Fuc(a1-2)]Gal(b1-4)GlcNAc
Procedure, shortened: as §1

[9] = biological target: Gal(b1-4)GalNAc(b1-3)[Fuc(a1-2)]Gal(b1-4)GlcNAc
Procedure, shortened: as §1

Gal(b1-4)Glc = biological target: Gal(b1-4)Glc
Procedure, shortened: as §1

Gal(b1-4)Glc6S = biological target: Gal(b1-4)Glc6S
Procedure, shortened: as §1

Gal(b1-4)GlcNAc = biological target: Gal(b1-4)GlcNAc
Procedure, shortened: as §1

[10] = biological target: Gal(b1-4)GlcNAc(a1-6)Gal(b1-4)GlcNAc
Procedure, shortened: as §1

Gal(b1-4)GlcNAc(b1-2)Man = biological target: Gal(b1-4)GlcNAc(b1-2)Man
Procedure, shortened: as §1

[11] = biological target: Gal(b1-4)GlcNAc(b1-2)Man(a1-3)Man(b1-4)GlcNAc(b1-4)GlcNAc
Procedure, shortened: as §1

[12] = biological target: Gal(b1-4)GlcNAc(b1-2)Man(a1-3)[Gal(b1-4)GlcNAc(b1-2)Man(a1-6)]Man(b1-4)GlcNAc(b1-4)GlcNAc
Procedure, shortened: as §1

[13] = biological target: Gal(b1-4)GlcNAc(b1-2)Man(a1-3)[Gal(b1-4)GlcNAc(b1-2)Man(a1-6)]Man(b1-4)GlcNAc(b1-4)[Fuc(a1-6)]GlcNAc
Procedure, shortened: as §1

[14] = biological target: Gal(b1-4)GlcNAc(b1-2)Man(a1-3)[Gal(b1-4)GlcNAc(b1-2)][GlcNAc(b1-4)]Man(b1-4)GlcNAc(b1-4)GlcNAc
Procedure, shortened: as §1

[15] = biological target: Gal(b1-4)GlcNAc(b1-2)Man(a1-3)[GlcNAc(b1-2)Man(a1-6)]Man(b1-4)GlcNAc(b1-4)GlcNAc
Procedure, shortened: as §1

[16] = biological target: Gal(b1-4)GlcNAc(b1-2)Man(a1-3)[Man(a1-6)]Man(b1-4)GlcNAc(b1-4)GlcNAc
Procedure, shortened: as §1

[17] = biological target: Gal(b1-4)GlcNAc(b1-2)Man(a1-6)Man(b1-4)GlcNAc(b1-4)GlcNAc
Procedure, shortened: as §1

[18] = biological target: Gal(b1-4)GlcNAc(b1-2)Man(a1-6)[GlcNAc(b1-2)Man(a1-3)]Man(b1-4)GlcNAc(b1-4)GlcNAc
Procedure, shortened: as §1

[19] = biological target: Gal(b1-4)GlcNAc(b1-2)Man(a1-6)[Man(a1-3)]Man(b1-4)GlcNAc(b1-4)GlcNAc
Procedure, shortened: as §1

[20] = biological target: Gal(b1-4)GlcNAc(b1-2)[Gal(b1-4)GlcNAc(b1-4)]Man(a1-3)[Gal(b1-4)GlcNAc(b1-2)Man(a1-6)]Man(b1-4)GlcNAc(b1-4)GlcNAc
Procedure, shortened: as §1

[21] = biological target: Gal(b1-4)GlcNAc(b1-2)[Gal(b1-4)GlcNAc(b1-4)]Man(a1-3)[Gal(b1-4)GlcNAc(b1-2)[Gal(b1-4)GlcNAc(b1-6)]Man(a1-6)]Man(b1-4)GlcNAc(b1-4)GlcNAc
Procedure, shortened: as §1

[22] = biological target: Gal(b1-4)GlcNAc(b1-2)[Gal(b1-4)GlcNAc(b1-4)]Man(a1-3)[GlcNAc(b1-4)][Gal(b1-4)GlcNAc(b1-2)Man(a1-6)]Man(b1-4)GlcNAc(b1-4)GlcNAc
Procedure, shortened: as §1

[23] = biological target: Gal(b1-4)GlcNAc(b1-2)[Gal(b1-4)GlcNAc(b1-4)]Man(a1-3)[GlcNAc(b1-4)][Gal(b1-4)GlcNAc(b1-2)[Gal(b1-4)GlcNAc(b1-6)]Man(a1-6)]Man(b1-4)GlcNAc(b1-4)GlcNAc
Procedure, shortened: as §1

[24] = biological target: Gal(b1-4)GlcNAc(b1-2)[Gal(b1-4)GlcNAc(b1-6)]Man(a1-6)[Gal(b1-4)GlcNAc(b1-2)Man(a1-3)]Man(b1-4)GlcNAc(b1-4)GlcNAc
Procedure, shortened: as §1

[25] = biological target: Gal(b1-4)GlcNAc(b1-2)[Gal(b1-4)GlcNAc(b1-6)]Man(a1-6)[GlcNAc(b1-4)][Gal(b1-4)GlcNAc(b1-2)Man(a1-3)]Man(b1-4)GlcNAc(b1-4)GlcNAc
Procedure, shortened: as §1

[26] = biological target: Gal(b1-4)GlcNAc(b1-3)Gal(b1-3)GlcNAc
Procedure, shortened: as §1

[27] = biological target: Gal(b1-4)GlcNAc(b1-3)Gal(b1-4)Glc
Procedure, shortened: as §1

[28] = biological target: Gal(b1-4)GlcNAc(b1-3)Gal(b1-4)GlcNAc
Procedure, shortened: as §1

[29] = biological target: Gal(b1-4)GlcNAc(b1-3)Gal(b1-4)GlcNAc(b1-3)Gal(b1-4)GlcNAc
Procedure, shortened: as §1

[30] = biological target: Gal(b1-4)GlcNAc(b1-3)Gal(b1-4)[Fuc(a1-3)GlcNAc(b1-6)]Gal(b1-4)Glc
Procedure, shortened: as §1

[31] = biological target: Gal(b1-4)GlcNAc(b1-3)Gal(b1-4)[Fuc(a1-3)]GlcNAc(b1-3)Gal(b1-4)[Fuc(a1-3)]GlcNAc
Procedure, shortened: as §1

[32] = biological target: Gal(b1-4)GlcNAc(b1-3)GalNAc
Procedure, shortened: as §1

B1: ConA (Canavalia ensiformis), P02866 (protein)
chain: MAISKKSSLFLPIFTFITMFLMVVNKVSSSTHETNALHFMFNQFSKDQKDLILQGDATTGTDGNLELTRVSSNGSPQGSSVGRALFYAPVHIWESSAVVASFEATFTFLIKSPDSHPADGIAFFISNIDSSIPSGSTGRLLGLFPDANVIRNSTTIDFNAAYNADTIVAVELDTYPNTDIGDPSYPHIGIDIKSVRSKKTAKWNMQNGKVGTAHIIYNSVDKRLSAVVSYPNADSATVSYDVDLDNVLPEWVRVGLSASTGLYKETNTILSWSFTSKLKSNEIPDIATVV
[1]
  glycan array binding signal (z-score): -0.207
[2]
  glycan array binding signal (z-score): -0.285
[3]
  glycan array binding signal (z-score): -0.296
[4]
  glycan array binding signal (z-score): -0.234
[5]
  glycan array binding signal (z-score): -0.129
[6]
  glycan array binding signal (z-score): -0.273
[7]
  glycan array binding signal (z-score): -0.273
Gal(b1-4)Gal
  glycan array binding signal (z-score): -0.213
[8]
  glycan array binding signal (z-score): -0.281
[9]
  glycan array binding signal (z-score): -0.258
Gal(b1-4)Glc
  glycan array binding signal (z-score): -0.273
Gal(b1-4)Glc6S
  glycan array binding signal (z-score): -0.273
Gal(b1-4)GlcNAc
  glycan array binding signal (z-score): -0.225
[10]
  glycan array binding signal (z-score): -0.187
Gal(b1-4)GlcNAc(b1-2)Man
  glycan array binding signal (z-score): -0.193
[11]
  glycan array binding signal (z-score): -0.192
[12]
  glycan array binding signal (z-score): 2.21
[13]
  glycan array binding signal (z-score): 0.005
[14]
  glycan array binding signal (z-score): -0.224
[15]
  glycan array binding signal (z-score): 0.311
[16]
  glycan array binding signal (z-score): 1.08
[17]
  glycan array binding signal (z-score): -0.193
[18]
  glycan array binding signal (z-score): -0.152
[19]
  glycan array binding signal (z-score): 0.688
[20]
  glycan array binding signal (z-score): -0.139
[21]
  glycan array binding signal (z-score): -0.122
[22]
  glycan array binding signal (z-score): -0.211
[23]
  glycan array binding signal (z-score): -0.196
[24]
  glycan array binding signal (z-score): -0.147
[25]
  glycan array binding signal (z-score): -0.24
[26]
  glycan array binding signal (z-score): -0.257
[27]
  glycan array binding signal (z-score): -0.274
[28]
  glycan array binding signal (z-score): -0.261
[29]
  glycan array binding signal (z-score): -0.262
[30]
  glycan array binding signal (z-score): -0.01
[31]
  glycan array binding signal (z-score): -0.121
[32]
  glycan array binding signal (z-score): -0.228
